According to paper PMC4752221:
These are yes or no findings as the source states them, for the method shown. In cells and extracts the contact can be indirect. Some binding calls cover weakened binding; strength is not graded here. Where a sequence is shown, tags or fusion partners need not be part of it.

Protein sequences, listed by entry. Tags and fused reporters are not part of them.
UniProt P40160: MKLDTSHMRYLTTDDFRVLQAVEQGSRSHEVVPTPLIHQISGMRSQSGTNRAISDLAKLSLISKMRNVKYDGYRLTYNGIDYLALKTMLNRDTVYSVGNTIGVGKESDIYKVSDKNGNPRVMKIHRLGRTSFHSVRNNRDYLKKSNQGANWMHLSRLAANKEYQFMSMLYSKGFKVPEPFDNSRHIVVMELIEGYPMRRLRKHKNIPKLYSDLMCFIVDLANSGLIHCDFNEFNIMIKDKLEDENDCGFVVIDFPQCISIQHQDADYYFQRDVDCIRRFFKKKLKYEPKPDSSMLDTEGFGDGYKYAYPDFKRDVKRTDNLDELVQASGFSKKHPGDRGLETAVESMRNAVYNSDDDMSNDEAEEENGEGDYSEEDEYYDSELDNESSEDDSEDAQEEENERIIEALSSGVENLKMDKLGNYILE

Target: T1, GFP-Dbp5 (S. cerevisiae) (UniProt P20449)
T1 sequence: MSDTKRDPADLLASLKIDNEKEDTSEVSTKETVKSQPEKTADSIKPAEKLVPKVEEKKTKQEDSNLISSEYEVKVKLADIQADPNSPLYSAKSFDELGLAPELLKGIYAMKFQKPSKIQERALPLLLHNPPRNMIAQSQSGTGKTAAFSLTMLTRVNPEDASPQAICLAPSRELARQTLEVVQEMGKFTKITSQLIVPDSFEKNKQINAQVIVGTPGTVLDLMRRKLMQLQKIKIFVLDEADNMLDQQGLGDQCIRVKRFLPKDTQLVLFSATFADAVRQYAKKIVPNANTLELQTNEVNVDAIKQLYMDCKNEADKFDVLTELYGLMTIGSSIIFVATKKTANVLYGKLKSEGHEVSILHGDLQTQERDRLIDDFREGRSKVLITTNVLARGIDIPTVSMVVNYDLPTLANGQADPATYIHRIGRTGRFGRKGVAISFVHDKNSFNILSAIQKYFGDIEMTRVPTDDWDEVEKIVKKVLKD
Assay: co-IP; GFP-tagged bait on GFP-Trap_A beads from clarified yeast lysate, PBSKMT (0.5% Triton-X 100), 3 h at 4°C, samples treated with 0.2 mg/ml RNase A for 30 min at 4°C; Western blot; in some panels wild type and dbp5 mutant cells after a 1 h temperature shift

Question: With Rio2 (from UniProt P40160 1-425) as the substance, how does the binding read?
Answer: The binding was “binds”.
